# Results from patent US20110319597A1 (CAPHALON AUSTRALIA, published 2011).
# B1: TNFα dAb Fc variant Y87Q (Fc fusion, name in Kabat numbering)
# chain: DIQMTQSPSSLSASVGDRVTITCRASQAIDSYLHWYQQKPGKAPKLLIYSASNLETGVPSRFSGSGSGTDFTLTISSLLPEDFATYQCQQVVWRPFTFGQGTKVEIKRV[human IgG1 Fc with changes left out]
# B2: TNFα dAb Fc variant Y87H (Fc fusion, name in Kabat numbering)
# chain: DIQMTQSPSSLSASVGDRVTITCRASQAIDSYLHWYQQKPGKAPKLLIYSASNLETGVPSRFSGSGSGTDFTLTISSLLPEDFATYHCQQVVWRPFTFGQGTKVEIKRV[human IgG1 Fc with changes left out]
# B3: TNFα dAb Fc variant Y87P (Fc fusion, name in Kabat numbering)
# chain: DIQMTQSPSSLSASVGDRVTITCRASQAIDSYLHWYQQKPGKAPKLLIYSASNLETGVPSRFSGSGSGTDFTLTISSLLPEDFATYPCQQVVWRPFTFGQGTKVEIKRV[human IgG1 Fc with changes left out]
# B4: TNFα dAb Fc variant Y87L (Fc fusion, name in Kabat numbering)
# chain: DIQMTQSPSSLSASVGDRVTITCRASQAIDSYLHWYQQKPGKAPKLLIYSASNLETGVPSRFSGSGSGTDFTLTISSLLPEDFATYLCQQVVWRPFTFGQGTKVEIKRV[human IgG1 Fc with changes left out]
# B5: TNFα dAb Fc variant Y87A (Fc fusion, name in Kabat numbering)
# chain: DIQMTQSPSSLSASVGDRVTITCRASQAIDSYLHWYQQKPGKAPKLLIYSASNLETGVPSRFSGSGSGTDFTLTISSLLPEDFATYACQQVVWRPFTFGQGTKVEIKRV[human IgG1 Fc with changes left out]
# B6: TNFα dAb Fc variant Y87D (Fc fusion, name in Kabat numbering)
# chain: DIQMTQSPSSLSASVGDRVTITCRASQAIDSYLHWYQQKPGKAPKLLIYSASNLETGVPSRFSGSGSGTDFTLTISSLLPEDFATYDCQQVVWRPFTFGQGTKVEIKRV[human IgG1 Fc with changes left out]
# B7: TNFα dAb Fc variant Y87K (Fc fusion, name in Kabat numbering)
# chain: DIQMTQSPSSLSASVGDRVTITCRASQAIDSYLHWYQQKPGKAPKLLIYSASNLETGVPSRFSGSGSGTDFTLTISSLLPEDFATYKCQQVVWRPFTFGQGTKVEIKRV[human IgG1 Fc with changes left out]
# B8: TNFα dAb Fc variant Y87S (Fc fusion, name in Kabat numbering)
# chain: DIQMTQSPSSLSASVGDRVTITCRASQAIDSYLHWYQQKPGKAPKLLIYSASNLETGVPSRFSGSGSGTDFTLTISSLLPEDFATYSCQQVVWRPFTFGQGTKVEIKRV[human IgG1 Fc with changes left out]
# B9: TNFα dAb Fc variant R18K (Fc fusion, name in Kabat numbering)
# chain: DIQMTQSPSSLSASVGDKVTITCRASQAIDSYLHWYQQKPGKAPKLLIYSASNLETGVPSRFSGSGSGTDFTLTISSLLPEDFATYYCQQVVWRPFTFGQGTKVEIKRV[human IgG1 Fc with changes left out]
# B10: TNFα dAb Fc variant T20H (Fc fusion, name in Kabat numbering)
# chain: DIQMTQSPSSLSASVGDRVHITCRASQAIDSYLHWYQQKPGKAPKLLIYSASNLETGVPSRFSGSGSGTDFTLTISSLLPEDFATYYCQQVVWRPFTFGQGTKVEIKRV[human IgG1 Fc with changes left out]
# B11: TNFα dAb Fc variant I21L (Fc fusion, name in Kabat numbering)
# chain: DIQMTQSPSSLSASVGDRVTLTCRASQAIDSYLHWYQQKPGKAPKLLIYSASNLETGVPSRFSGSGSGTDFTLTISSLLPEDFATYYCQQVVWRPFTFGQGTKVEIKRV[human IgG1 Fc with changes left out]
# B12: TNFα dAb Fc variant T22Q (Fc fusion, name in Kabat numbering)
# chain: DIQMTQSPSSLSASVGDRVTIQCRASQAIDSYLHWYQQKPGKAPKLLIYSASNLETGVPSRFSGSGSGTDFTLTISSLLPEDFATYYCQQVVWRPFTFGQGTKVEIKRV[human IgG1 Fc with changes left out]
# B13: TNFα dAb Fc variant T20Y (Fc fusion, name in Kabat numbering)
# chain: DIQMTQSPSSLSASVGDRVYITCRASQAIDSYLHWYQQKPGKAPKLLIYSASNLETGVPSRFSGSGSGTDFTLTISSLLPEDFATYYCQQVVWRPFTFGQGTKVEIKRV[human IgG1 Fc with changes left out]
# B14: TNFα dAb Fc variant D1Y (Fc fusion, name in Kabat numbering)
# chain: YIQMTQSPSSLSASVGDRVTITCRASQAIDSYLHWYQQKPGKAPKLLIYSASNLETGVPSRFSGSGSGTDFTLTISSLLPEDFATYYCQQVVWRPFTFGQGTKVEIKRV[human IgG1 Fc with changes left out]
# B15: TNFα dAb Fc variant I2P (Fc fusion, name in Kabat numbering)
# chain: DPQMTQSPSSLSASVGDRVTITCRASQAIDSYLHWYQQKPGKAPKLLIYSASNLETGVPSRFSGSGSGTDFTLTISSLLPEDFATYYCQQVVWRPFTFGQGTKVEIKRV[human IgG1 Fc with changes left out]
# B16: TNFα dAb Fc variant I2H (Fc fusion, name in Kabat numbering)
# chain: DHQMTQSPSSLSASVGDRVTITCRASQAIDSYLHWYQQKPGKAPKLLIYSASNLETGVPSRFSGSGSGTDFTLTISSLLPEDFATYYCQQVVWRPFTFGQGTKVEIKRV[human IgG1 Fc with changes left out]
# B17: TNFα dAb Fc variant D1K (Fc fusion, name in Kabat numbering)
# chain: KIQMTQSPSSLSASVGDRVTITCRASQAIDSYLHWYQQKPGKAPKLLIYSASNLETGVPSRFSGSGSGTDFTLTISSLLPEDFATYYCQQVVWRPFTFGQGTKVEIKRV[human IgG1 Fc with changes left out]
# B18: TNFα dAb Fc variant T22D (Fc fusion, name in Kabat numbering)
# chain: DIQMTQSPSSLSASVGDRVTIDCRASQAIDSYLHWYQQKPGKAPKLLIYSASNLETGVPSRFSGSGSGTDFTLTISSLLPEDFATYYCQQVVWRPFTFGQGTKVEIKRV[human IgG1 Fc with changes left out]
# B19: TNFα dAb Fc variant D1A (Fc fusion, name in Kabat numbering)
# chain: AIQMTQSPSSLSASVGDRVTITCRASQAIDSYLHWYQQKPGKAPKLLIYSASNLETGVPSRFSGSGSGTDFTLTISSLLPEDFATYYCQQVVWRPFTFGQGTKVEIKRV[human IgG1 Fc with changes left out]
# B20: TNFα dAb Fc variant I2A (Fc fusion, name in Kabat numbering)
# chain: DAQMTQSPSSLSASVGDRVTITCRASQAIDSYLHWYQQKPGKAPKLLIYSASNLETGVPSRFSGSGSGTDFTLTISSLLPEDFATYYCQQVVWRPFTFGQGTKVEIKRV[human IgG1 Fc with changes left out]
# B21: TNFα dAb Fc variant T22A (Fc fusion, name in Kabat numbering)
# chain: DIQMTQSPSSLSASVGDRVTIACRASQAIDSYLHWYQQKPGKAPKLLIYSASNLETGVPSRFSGSGSGTDFTLTISSLLPEDFATYYCQQVVWRPFTFGQGTKVEIKRV[human IgG1 Fc with changes left out]
# B22: TNFα dAb Fc variant T20K (Fc fusion, name in Kabat numbering)
# chain: DIQMTQSPSSLSASVGDRVKITCRASQAIDSYLHWYQQKPGKAPKLLIYSASNLETGVPSRFSGSGSGTDFTLTISSLLPEDFATYYCQQVVWRPFTFGQGTKVEIKRV[human IgG1 Fc with changes left out]
# B23: TNFα dAb Fc variant I2S (Fc fusion, name in Kabat numbering)
# chain: DSQMTQSPSSLSASVGDRVTITCRASQAIDSYLHWYQQKPGKAPKLLIYSASNLETGVPSRFSGSGSGTDFTLTISSLLPEDFATYYCQQVVWRPFTFGQGTKVEIKRV[human IgG1 Fc with changes left out]
# B24: TNFα dAb Fc variant I2L (Fc fusion, name in Kabat numbering)
# chain: DLQMTQSPSSLSASVGDRVTITCRASQAIDSYLHWYQQKPGKAPKLLIYSASNLETGVPSRFSGSGSGTDFTLTISSLLPEDFATYYCQQVVWRPFTFGQGTKVEIKRV[human IgG1 Fc with changes left out]
# B25: TNFα dAb Fc variant D1L (Fc fusion, name in Kabat numbering)
# chain: LIQMTQSPSSLSASVGDRVTITCRASQAIDSYLHWYQQKPGKAPKLLIYSASNLETGVPSRFSGSGSGTDFTLTISSLLPEDFATYYCQQVVWRPFTFGQGTKVEIKRV[human IgG1 Fc with changes left out]
# B26: TNFα dAb Fc variant D1H (Fc fusion, name in Kabat numbering)
# chain: HIQMTQSPSSLSASVGDRVTITCRASQAIDSYLHWYQQKPGKAPKLLIYSASNLETGVPSRFSGSGSGTDFTLTISSLLPEDFATYYCQQVVWRPFTFGQGTKVEIKRV[human IgG1 Fc with changes left out]
# B27: TNFα dAb Fc variant T20A (Fc fusion, name in Kabat numbering)
# chain: DIQMTQSPSSLSASVGDRVAITCRASQAIDSYLHWYQQKPGKAPKLLIYSASNLETGVPSRFSGSGSGTDFTLTISSLLPEDFATYYCQQVVWRPFTFGQGTKVEIKRV[human IgG1 Fc with changes left out]
# B28: TNFα dAb Fc variant D1Q (Fc fusion, name in Kabat numbering)
# chain: QIQMTQSPSSLSASVGDRVTITCRASQAIDSYLHWYQQKPGKAPKLLIYSASNLETGVPSRFSGSGSGTDFTLTISSLLPEDFATYYCQQVVWRPFTFGQGTKVEIKRV[human IgG1 Fc with changes left out]
# B29: TNFα dAb Fc variant T20D (Fc fusion, name in Kabat numbering)
# chain: DIQMTQSPSSLSASVGDRVDITCRASQAIDSYLHWYQQKPGKAPKLLIYSASNLETGVPSRFSGSGSGTDFTLTISSLLPEDFATYYCQQVVWRPFTFGQGTKVEIKRV[human IgG1 Fc with changes left out]
# B30: TNFα dAb Fc variant D1S (Fc fusion, name in Kabat numbering)
# chain: SIQMTQSPSSLSASVGDRVTITCRASQAIDSYLHWYQQKPGKAPKLLIYSASNLETGVPSRFSGSGSGTDFTLTISSLLPEDFATYYCQQVVWRPFTFGQGTKVEIKRV[human IgG1 Fc with changes left out]
# B31: TNFα dAb Fc variant T22Y (Fc fusion, name in Kabat numbering)
# chain: DIQMTQSPSSLSASVGDRVTIYCRASQAIDSYLHWYQQKPGKAPKLLIYSASNLETGVPSRFSGSGSGTDFTLTISSLLPEDFATYYCQQVVWRPFTFGQGTKVEIKRV[human IgG1 Fc with changes left out]
# B32: TNFα dAb Fc variant T22H (Fc fusion, name in Kabat numbering)
# chain: DIQMTQSPSSLSASVGDRVTIHCRASQAIDSYLHWYQQKPGKAPKLLIYSASNLETGVPSRFSGSGSGTDFTLTISSLLPEDFATYYCQQVVWRPFTFGQGTKVEIKRV[human IgG1 Fc with changes left out]
# B33: TNFα dAb Fc variant V19A (Fc fusion, name in Kabat numbering)
# chain: DIQMTQSPSSLSASVGDRATITCRASQAIDSYLHWYQQKPGKAPKLLIYSASNLETGVPSRFSGSGSGTDFTLTISSLLPEDFATYYCQQVVWRPFTFGQGTKVEIKRV[human IgG1 Fc with changes left out]
# B34: TNFα dAb Fc variant T20Q (Fc fusion, name in Kabat numbering)
# chain: DIQMTQSPSSLSASVGDRVQITCRASQAIDSYLHWYQQKPGKAPKLLIYSASNLETGVPSRFSGSGSGTDFTLTISSLLPEDFATYYCQQVVWRPFTFGQGTKVEIKRV[human IgG1 Fc with changes left out]
# B35: TNFα dAb Fc variant I2K (Fc fusion, name in Kabat numbering)
# chain: DKQMTQSPSSLSASVGDRVTITCRASQAIDSYLHWYQQKPGKAPKLLIYSASNLETGVPSRFSGSGSGTDFTLTISSLLPEDFATYYCQQVVWRPFTFGQGTKVEIKRV[human IgG1 Fc with changes left out]
# B36: TNFα dAb Fc variant K103S (Fc fusion, name in Kabat numbering)
# chain: DIQMTQSPSSLSASVGDRVTITCRASQAIDSYLHWYQQKPGKAPKLLIYSASNLETGVPSRFSGSGSGTDFTLTISSLLPEDFATYYCQQVVWRPFTFGQGTSVEIKRV[human IgG1 Fc with changes left out]
# B37: TNFα dAb Fc variant I2Y (Fc fusion, name in Kabat numbering)
# chain: DYQMTQSPSSLSASVGDRVTITCRASQAIDSYLHWYQQKPGKAPKLLIYSASNLETGVPSRFSGSGSGTDFTLTISSLLPEDFATYYCQQVVWRPFTFGQGTKVEIKRV[human IgG1 Fc with changes left out]
# B38: TNFα dAb Fc variant T22L (Fc fusion, name in Kabat numbering)
# chain: DIQMTQSPSSLSASVGDRVTILCRASQAIDSYLHWYQQKPGKAPKLLIYSASNLETGVPSRFSGSGSGTDFTLTISSLLPEDFATYYCQQVVWRPFTFGQGTKVEIKRV[human IgG1 Fc with changes left out]
# Molecular target: T1, recombinant human TNFα (CytoLab) (human, UniProt P01375 in part)
# T1 construct: coated on the ELISA plate at 1 µg/ml; also called Tumour necrosis factor alpha
# Assay: ELISA on coated human TNFα
row,Binder,A450 (AU)
1,B1,0.192
2,B2,0.222
3,B3,0.176
4,B4,0.717
5,B5,0.219
6,B6,0.208
7,B7,0.283
8,B8,0.201

# Molecular target: recombinant human TNFα (human, UniProt P01375 in part)
# Assay: cell-based or functional assay
row,Binder,"Standardized EC50, L929 neutralization assay (5-point) [µg/mL]"
1,B9,0.957
2,B10,1.69
3,B11,2.4
4,B12,2.26
5,B13,6.96
6,B14,0.676
7,B15,0.725
8,B16,80.7
9,B17,0.833
10,B18,1.43
11,B19,0.556
12,B20,1.23
13,B21,0.725
14,B22,4.38
15,B23,2.79
16,B24,0.593
17,B25,6.04
18,B26,1.13
19,B27,1.6
20,B28,1.1
21,B29,3.22
22,B30,0.846
23,B31,2.85
24,B32,11.5
25,B33,1.86
26,B34,2.02
27,B35,2.79
28,B36,1.89
29,B37,3.61
30,B38,2.51
